Laboratory results taken from the supplement of paper PMC11417369.
± gives the standard deviation of the averaged measurements. This is one part of the list.

Test system: PfAP2-G AP2 domain (GST-tagged)
Assay: gcPBM binding intensity (ln(normalized median fluorescence intensity)); higher = stronger DNA binding
Procedure, shortened: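 Using an Agilent 4 × 180k array, primer-extended double-stranded 36-bp intergenic genomic probes and negative controls were exposed for 1 h to GST-fused P. falciparum DNA-binding domains expressed in E. coli. Binding was carried out in 1× PBS with 1% milk, 0.2 mg/ml BSA, 0.5% salmon testes DNA and 0.03% Triton X-100, and protein was detected with Alexa488 anti-GST antibody and a 488 nm scan. Binding intensity is the highest Masliner-normalised natural-log median intensity across replicate spots of either probe orientation.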

Row | Sequence | gcPBM binding intensity (ln)
1 | AAATTAAATAAATTTACACACTAAAAGTTACCTATA [CACACA_site6623] | 9.82 ± 0.085
2 | TTTGTTATTTATTAGTGTACAAAAAAGCATTTCAAA [XGTACX_site8729] | 11.1 ± 0.71
3 | TTTTTTTTGCGTACAGTGCAAATTTATTTACTATTC | 11.7 ± 1.1
4 | AATAATGTATAATGATGTACAAAAAAGGAAGACATA [XGTACX_site2474] | 11 ± 0.51
5 | ATATTTTGTAATATTTGTACATATATTATACATATA [XGTACX_site963] | 10.9 ± 0.54
6 | CAAAACATTTTATCTACACACATATATAAATAAATA [CACACA_site3220] | 9.885 ± 0.035
7 | AATAAAACATAATAATGTACTCAAAGGTTTAACTTG [XGTACX_site4711] | 11.2 ± 0.72
8 | ATTAAATAAAAAAACACACACATATATACCTATATA [CACACA_site5837] | 9.96 ± 0.13
9 | GGGGGGAGGGTGAATACACACGTAATAATCATAAAC [CACACA_site8502] | 11.6 ± 0.79
10 | AAAATAAAAGAATAAAAATATGAAACTTTTTTAAAA [GTGCAC_negctrl_site348] | 9.58 ± 0.17
11 | AACGTGTGGAGAATTATAAATGAGTAAAAAATATAT [XGTACX_negctrl_site562] | 9.96 ± 0.23
12 | GCAAATCAATTTTTTTTTAAAACTCATTTTTTCGTT [CACACA_negctrl_site1136] | 9.87 ± 0.23
13 | TCCGTTATATATGTGTGTACATATAATATATCCTCA [XGTACX_site2588] | 11.5 ± 0.98
14 | ATATATGTGTATGTATGTACTTATATTTTTTTTTAT [XGTACX_site1733] | 11.2 ± 0.78
15 | TTTTTTTTTTATGAAAGTACATATGAAAAATACGAA [XGTACX_site3451] | 11 ± 0.8
16 | AAAAATGAAAGTAAGACATGCATGGAATTTTTTTTA [TGCATGCA_site347] | 9.73 ± 0.28
17 | ATATATATATATGTATGTACGTATGTATTTACTGCT [XGTACX_site3839] | 11.3 ± 0.86
18 | GAAGTAATTTCATATACACACATATACATACATACA [CACACA_site6753] | 10.3 ± 0.19
19 | TTCATACATATTTGAAGTACATTTAAAAATGTCCTT [XGTACX_site747] | 11.3 ± 0.56
20 | TCCAATATATTTATGAGTACTTATAAATTATACGTT [XGTACX_site742] | 11.6 ± 0.98
21 | TTTGAATAAAAACAAAAAATTAAATTAAATTAAATA [CACACA_negctrl_site312] | 9.53 ± 0.24
22 | TATTTATAATTATAATAATATATATATATATATATA [TGCATGCA_negctrl_site173] | 9.82 ± 0.42
23 | ATTGTGTTAATAAAATGTACATTTTCTCTACATTAA [XGTACX_site2766] | 11 ± 0.57

Row | Sequence | gcPBM binding intensity (ln)
24 | TTCTTACATGAGTGTACACACTTTTTTTCAGAAAAT [CACACA_site4215] | 11.7 ± 1
25 | GGTGGGGAGGAGTAATGTACAAATTAACATATTATG [XGTACX_site6666] | 11.3 ± 0.77
26 | AATAGTCGGGTGCATACACACCTTAAATATAATATA [CACACA_site8271] | 10.2 ± 0.25
27 | TTATAAAATATTTATGCATGTGAAGAATATTATAAA [TGCATGCA_site1047] | 9.94 ± 0.014
28 | GAAAAAAGTATCAAGGTGCGTATATACATCAAAATA | 10.8 ± 0.64
29 | TATATATTATAAAATTGTACATATATTAAATTTTTT [XGTACX_site5852] | 10.8 ± 0.48
30 | CATTTATATAAAAGAACACACATATAAAATATTATT [CACACA_site3601] | 10.1 ± 0.11
31 | TTTTTTTTTTAATTGGGTACATATATAATTTAAGAA [XGTACX_site2732] | 11.3 ± 0.79
32 | AAGATACCAATGAAATGTACATATATATAAATATAA [XGTACX_site2135] | 10.9 ± 0.42
33 | CAAAACAAAACGTATGCACACAATTAAAATATTAAA [CACACA_site5815] | 10.2 ± 0.29
34 | AAATGTTGAGCAGTACAAAAAAAAAAAAAAAAAAAA [GTGCAC_negctrl_site518] | 10.7 ± 0.83
35 | ATATAATATATTTTTGAACACACAATATATATATAT [CACACA_site9368] | 10.1 ± 0.41
36 | AGCAAAACATAAAATAGTACACATTTAACAAAAAAA [XGTACX_site2921] | 11.4 ± 0.71
37 | AAAAGAACAATGAAGTGTACTAATAATTATTTATGT [XGTACX_site6649] | 11.3 ± 0.79
38 | TTTTATCATCTTTTTACATTATGTATAAATATTTTC [CACACA_negctrl_site206] | 10.025 ± 0.007
39 | TAACTAATATATAAAACACACATCATAAAAATATAA [CACACA_site768] | 9.955 ± 0.078
40 | TTTTGTTGAAAAGTAAGATATTCCAACATGTTTTTA [CACACA_negctrl_site391] | 9.88 ± 0.014
41 | ATATCATTTTCCTGCACACATAAATTTATATAATAT [CACACA_site1048] | 10.4 ± 0.23
42 | ACACATAAATGAATAAATAAATAAATATAAATATAA [CACACA_negctrl_site1784] | 9.675 ± 0.007
43 | TACATATTGATATATACACACAAAAAAATAAATTCT [CACACA_site6198] | 9.86 ± 0.028
44 | ACCTTAATAAAAAAAAGTACAAACATGTTCAAATTG [XGTACX_site1556] | 11.5 ± 0.95
45 | ATATATTGCACTTTTTGTACATAATGAAAAATTTTT [XGTACX_site8223] | 11.1 ± 0.56
46 | CATACACCCATACATACACACATACAGATATATATA [CACACA_site5123] | 10.2 ± 0.29

Row | Sequence | gcPBM binding intensity (ln)
47 | AATTCGTACCTCATTTGTACATATATATATATATAT [XGTACX_site5513] | 11.3 ± 0.69
48 | TTTTTTATAGTACATTACCAAAAAAAAAAAAAAAAA [GTGCAC_negctrl_site549] | 11.1 ± 0.97
49 | CTTTTATTTTATTTTAGTACGCAACATTCTCTATAT [XGTACX_site7279] | 11.3 ± 0.73
50 | TATTTATTTAAAAATTGTACGTAGGATTATACACTT [XGTACX_site286] | 11.2 ± 0.86
51 | ATATAAATATTATAATGTACATATAATATATTTATT [XGTACX_site5212] | 11 ± 0.49
52 | TCACCATATAAACGTGCACACTACAAAAATATATAA [CACACA_site5413] | 10.6 ± 0.61
53 | ATCTCTGTATGTTAGACACACATATTTTAATATGTT [CACACA_site4244] | 10.2 ± 0.16
54 | TAAAATTTGTACATAGTGCAATTTTTTTTTTTTTTT | 10.7 ± 0.52
55 | TAGTTTTTTATATATTGTACAAATAATATATGATAT [XGTACX_site4220] | 10.8 ± 0.47
56 | AGTGATTATTAATAATGTACATATCTATAAATATAT [XGTACX_site4734] | 11 ± 0.47
57 | TTTTTTTTTTTTTTCTTACAATTTATTGAACAAATG [XGTACX_negctrl_site515] | 9.73 ± 0.49
58 | TATATATTTCATCCTTGTACACATTTGTGTTTACAT [XGTACX_site1132] | 11.2 ± 0.73
59 | GTATTGCATGAGGACACACACAAAAAAAATATAGAT [CACACA_site6500] | 11.3 ± 0.97
60 | ACAATTTACACTTAAACACACAAAAAAAAGTTATAT [CACACA_site7056] | 10.05 ± 0.021
61 | TATCAAAATTGTAATTGTACTTGTAAGTGGATATAT [XGTACX_site5949] | 11.3 ± 0.88
62 | AATAAATAAATATATATATATATATATATATATATA [CACACA_negctrl_site365] | 9.63 ± 0.48
63 | TAAAAATTGAAGCACACACACAAAAGAAATACAATA [CACACA_site1113] | 10.2 ± 0.11
64 | ATATAAAAAAATTGCACACATAAATAAATACAGATA [CACACA_site4806] | 10.15 ± 0.035
65 | TTTTTTTTTACTTGTTGTACTTTTTCAAGGTATTGT [XGTACX_site7778] | 11.4 ± 0.83
66 | AGATAAGATATATACACACACATAAATACGTACAAA [CACACA_site6639] | 11.6 ± 0.78
67 | CTACCTTTAATATATACACACACATAAAAAAAATAT [CACACA_site8548] | 10.3 ± 0.3
68 | ATATATATATATAATAAACACACAAATAGATATAAC [CACACA_site9234] | 10.065 ± 0.007
69 | TATATATATATATATACATGCATACATATACATACA [TGCATGCA_site897] | 10 ± 0.22

Row | Sequence | gcPBM binding intensity (ln)
70 | AAGAATGTTATTAGTACACACAATTATTATAGAAAT [CACACA_site7714] | 11.3 ± 0.97
71 | AATGTACAAATACGTACACACATATTTATATTTATA [CACACA_site6833] | 11.6 ± 0.99
72 | ATATTTACAAGTAATAGTACAGTTAATTATATAAAA [XGTACX_site4856] | 11.2 ± 0.95
73 | ATTATATAGCTAAAAAAAATAAATTAAAAATATTAA [TGCATGCA_negctrl_site505] | 9.53 ± 0.042
74 | TACTTGTTATTAACATGTACAAAAAAAAAAAAAATT [XGTACX_site1338] | 10.8 ± 0.53
75 | AAACAATATTCTCAAGTGCAAAAAGAAAAAAGAAAT | 9.95 ± 0.11
76 | TTTATTTTTATTTAAAGTACATATCCATTTATTCCT [XGTACX_site1914] | 11.2 ± 0.7
77 | ATAGGATGCATATGAGTGCATTCTGTGTTGTTATAA | 9.885 ± 0.007
78 | AGATTAAAATATATACGTACATATTATTAATTAATA [XGTACX_site3487] | 11.5 ± 0.86
79 | AATGTACCCACACCCACACACAAACAAATATATATA [CACACA_site2751] | 11.3 ± 0.95
80 | TAATGTATTATATTTTGTTTTCTTCCACCAAAAAAA [XGTACX_negctrl_site64] | 10.3 ± 0.49
81 | AAAAAAAAAATTAAATGTACACACACCTTAAACAAT [XGTACX_site3848] | 11.4 ± 0.74
82 | ATTTTCTTATATATATTTTGTATATATTTTGTACAT [CACACA_negctrl_site1496] | 10.5 ± 0.39
83 | ACCCATATAATATATACACACATATATATATATATA [CACACA_site4731] | 10.1 ± 0.18
84 | TCTCATAGTAGACACACACACACACGCACATATATA [CACACA_site6916] | 10.4 ± 0.22
85 | TATGTATGTGCTTGTGCGCACCGATAATATAGCCAA | 10.5 ± 0.31
86 | TGCTATAATTTATATACACACAAATATATACGCATA [CACACA_site4096] | 10 ± 0.14
87 | ACATAAGACACAAATACACACAAAAATATGTAACAA [CACACA_site7836] | 10.2 ± 0.21
88 | TTTTATGAAAAGTATTGTACGTATAATTTATATGTA [XGTACX_site1639] | 11.6 ± 1.1
89 | TATATAAATAGACACACACACACCTTATAATTACTA [CACACA_site7828] | 10.1 ± 0.16
